Laboratory results from publication PMC4336329 (PLoS ONE, 2015).
Screen size: about 310,000 compounds; about 14,000 (4.5%) showed an effect of 50% or more. Effects have a minus sign here. The list shows a part of the results.

target: human ether-à-go-go-related gene (hERG) potassium channel (human, UniProt Q12809); assay: primary screen, population patch clamp on CHO cells stably expressing hERG
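Further: peak tail current of the secondary pulse compared with the same well before compound.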

Chain of human ether-à-go-go-related gene (hERG) potassium channel (Q12809 whole entry, looked up): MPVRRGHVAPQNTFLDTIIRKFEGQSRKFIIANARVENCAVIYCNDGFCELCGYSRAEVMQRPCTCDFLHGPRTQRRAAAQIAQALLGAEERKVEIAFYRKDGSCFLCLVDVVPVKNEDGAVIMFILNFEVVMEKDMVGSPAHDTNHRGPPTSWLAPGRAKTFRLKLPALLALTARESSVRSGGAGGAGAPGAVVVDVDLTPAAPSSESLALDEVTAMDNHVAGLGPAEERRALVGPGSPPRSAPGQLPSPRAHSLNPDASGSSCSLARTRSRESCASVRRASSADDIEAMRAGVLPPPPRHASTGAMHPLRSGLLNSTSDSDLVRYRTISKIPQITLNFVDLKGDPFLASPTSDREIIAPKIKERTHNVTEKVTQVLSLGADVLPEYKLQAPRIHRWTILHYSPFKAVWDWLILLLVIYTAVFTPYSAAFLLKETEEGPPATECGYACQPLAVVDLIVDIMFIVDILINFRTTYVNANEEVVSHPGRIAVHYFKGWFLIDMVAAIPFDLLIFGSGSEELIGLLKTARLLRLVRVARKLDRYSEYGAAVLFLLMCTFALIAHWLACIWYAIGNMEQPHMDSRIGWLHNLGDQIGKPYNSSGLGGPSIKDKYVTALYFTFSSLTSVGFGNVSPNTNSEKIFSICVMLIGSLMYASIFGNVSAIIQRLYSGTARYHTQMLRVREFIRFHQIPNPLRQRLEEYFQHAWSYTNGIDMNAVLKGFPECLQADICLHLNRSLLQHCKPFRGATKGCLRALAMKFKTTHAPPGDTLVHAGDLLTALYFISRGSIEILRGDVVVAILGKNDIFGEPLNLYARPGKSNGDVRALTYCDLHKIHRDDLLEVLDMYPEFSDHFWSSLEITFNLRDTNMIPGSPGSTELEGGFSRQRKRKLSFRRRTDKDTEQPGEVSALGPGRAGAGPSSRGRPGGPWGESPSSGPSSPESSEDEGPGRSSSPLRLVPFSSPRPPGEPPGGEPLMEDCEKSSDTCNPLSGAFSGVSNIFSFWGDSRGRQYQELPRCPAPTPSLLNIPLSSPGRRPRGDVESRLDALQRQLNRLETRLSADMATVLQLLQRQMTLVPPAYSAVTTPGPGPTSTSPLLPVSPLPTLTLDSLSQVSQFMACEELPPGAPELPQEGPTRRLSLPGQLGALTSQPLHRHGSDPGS

Structure (SMILES) | hERG current change (%, negative = inhibition) at 10uM [%]
O=[N+]([O-])c1ccc(CSc2nc3ccccc3[nH]2)cc1 | -54.2
CC1CCCC(C)N1C(=O)CSc1nnc(COc2cccc3cccnc23)o1 (centres unmarked) | 6.67
Cc1ccc(C(=O)N2CCC3(CC2)Oc2ccc(Cl)cc2C(=O)C32CC(c3ccc(Cl)cc3)=NO2)s1 (centres unmarked) | 16.6
CC(=O)c1cccc(NC(=O)C(=O)c2cn(CC(=O)N3CCCCC3)c3ccccc23)c1 | -8.35
CCOC1=NS(=O)(=O)c2ccccc21 | 1.66
Cc1cc(Cl)cc(Cl)c1OCCOCCN(C)C.O=C(O)C(=O)O | -48.9
O=C(N/N=C/c1ccco1)C1CC1 | -0.246
Cc1ccc(S(=O)(=O)N(C)C)cc1NC(=S)NCCc1ccccn1 | 24.2
Cc1c(C(=O)NCC(C)C)sc2nc(-c3ccc(F)cc3)cn12 | -5.46
O=C(O)c1cccc(NC(=O)c2ccc(COc3ccc(Cl)cc3)cc2)c1 | 16.7
C/C(=N\NC(N)=O)C1(C)CCCCC1 | 8
COc1ccccc1N1CCN(C(=O)CSc2nc(N)cc(=O)[nH]2)CC1 | 6.2
COc1cc(C(=O)NC2CCN(CC(=O)NC3CCCCC3C)CC2)cc(OC)c1OC (centres unmarked) | 4.58
CCOC(=O)N1CCN(S(=O)(=O)c2ccc(OCC)c(C)c2)CC1 | -13.5
O=C(NCC(=O)N(c1ccccc1)C(C(=O)NCC1CCCO1)c1ccccc1)c1ccco1 (centres unmarked) | 12.2
O=S(=O)(NCC(Nc1ccccc1)c1ccccc1)c1ccc(Cl)cc1 (centres unmarked) | -0.486
O=S(=O)(c1ccc(Cl)cc1)N1CCC(n2cnc3cc(C(F)(F)F)ccc32)CC1 | -78.4
Cc1c2cnn(CC(=O)NCCCN3CC(C)CC(C)C3)c(=O)c2c(C)n1Cc1ccccc1Cl (centres unmarked) | -36.7
Cc1ccc(S(=O)(=O)Nc2cc(-c3ccc(Cl)cc3)nn2C)cc1 | 9.97
COc1ccccc1OCc1nc(C#N)c(N2CCCC2)o1 | 20.1
CC(=O)Nc1ccc(NC(=O)C2CCC(CNS(=O)(=O)c3cccc4nsnc34)CC2)cc1 (centres unmarked) | 17.3
C/C(=N/NC(=O)CNC(=O)c1ccccn1)c1cccc([N+](=O)[O-])c1 | -4.71

Structure (SMILES) | hERG current change (%, negative = inhibition) at 10uM [%]
O=C(NC(=S)Nc1cccnc1)c1cccs1 | -3.08
CCCCn1c(O)c(C(CC)=NCc2cc(OC)cc(OC)c2)c(=O)[nH]c1=O | -13.8
Cc1ccc(CNC(=O)C2CCCN(c3nn4c(=O)cc(C)nc4s3)C2)cc1 (centres unmarked) | -31.1
Cc1ccnc(NS(=O)(=O)c2ccc(NC(=O)c3ccc(Br)o3)cc2)n1 | -29.5
CN1CCN(C(=O)CCNC(=O)Cn2ccc3ccccc3c2=O)CC1 | 25.6
CCC(=O)Nc1nc2ccccc2n1Cc1ccccc1C | 10.1
CCC(=O)Nc1c2c(nn1-c1ccc(OC)cc1)CSC2 | 14.7
O=C(CSc1nncn1-c1ccccc1)NCc1cccs1 | 11.1
CCC1(CC)C(=O)NC(=O)NC1=Nc1ccccc1 | 12.7
CCOC(=O)/C(C#N)=C/c1ccc(OC(=O)c2ccccn2)cc1 | -5.99
Cc1cccc(NC(=O)C2CC(=O)n3ncnc3N2)c1 (centres unmarked) | 8.05
CCOC(=O)C1CCN(CC(O)COCc2ccccc2)CC1.O=C(O)C(=O)O (centres unmarked) | -31.1
CC(C(=O)Nc1ccccc1C(=O)N1CCOCC1)N(c1ccc(Cl)cc1)S(C)(=O)=O (centres unmarked) | 6.41
CC(C)(C)C(=O)CC1(O)C(=O)N(Cc2ccc(Cl)cc2)c2ccccc21 (centres unmarked) | -2.51
CC(C)CN(C(=O)COC(=O)CNC(=O)c1ccccc1F)c1c(N)n(Cc2ccccc2)c(=O)[nH]c1=O | -2.12
COc1ccc2nc3oc(C(=O)N4CCC5(CC4)OCCO5)cc3cc2c1 | -16.5
S=C1NC(C23CC4CC(CC(C4)C2)C3)=CC(c2ccc3c(c2)OCO3)N1 (centres unmarked) | -3.35
Nc1nc(NCc2ccccc2)nc(-c2ccccc2)n1 | 2.96
CC(C)CNS(=O)(=O)c1ccc(CCC(=O)Nc2cc(Cl)ccc2Oc2ccccc2)cc1 | 2.49
COc1cccc(CN2CCNC(=O)C2CC(=O)NCCn2ccc3ccccc32)c1OC (centres unmarked) | 8.66
Cl.O[C@@H](c1cc(C(F)(F)F)nc2c(C(F)(F)F)cccc12)[C@H]1CCCCN1 | 6.31
CCc1cc(-c2onc(C)c2-c2cscn2)c(O)cc1OC | 18.1
